At least one compound was matched to its structure with a doubt left. Where a SMILES comes first, the peptide text is derived from it. [ ]: non-standard residue; d: D form. The star is where a group is joined. 5TAMRA = CN(C)c1ccc2c(c1)Oc1cc(N(C)C)ccc1C21OC(=O)c2cc(C(=O)*)ccc21; Nle = CCCC[C@H](N)C(=O)O
Molecular target: T1, endogenous hPTHR1 (Homo sapiens, UniProt Q03431)
T1 construct: Saos-2, in which is endogenously expressed the hPTHR1; endogenous in cells
T1 sequence (Q03431 27-593): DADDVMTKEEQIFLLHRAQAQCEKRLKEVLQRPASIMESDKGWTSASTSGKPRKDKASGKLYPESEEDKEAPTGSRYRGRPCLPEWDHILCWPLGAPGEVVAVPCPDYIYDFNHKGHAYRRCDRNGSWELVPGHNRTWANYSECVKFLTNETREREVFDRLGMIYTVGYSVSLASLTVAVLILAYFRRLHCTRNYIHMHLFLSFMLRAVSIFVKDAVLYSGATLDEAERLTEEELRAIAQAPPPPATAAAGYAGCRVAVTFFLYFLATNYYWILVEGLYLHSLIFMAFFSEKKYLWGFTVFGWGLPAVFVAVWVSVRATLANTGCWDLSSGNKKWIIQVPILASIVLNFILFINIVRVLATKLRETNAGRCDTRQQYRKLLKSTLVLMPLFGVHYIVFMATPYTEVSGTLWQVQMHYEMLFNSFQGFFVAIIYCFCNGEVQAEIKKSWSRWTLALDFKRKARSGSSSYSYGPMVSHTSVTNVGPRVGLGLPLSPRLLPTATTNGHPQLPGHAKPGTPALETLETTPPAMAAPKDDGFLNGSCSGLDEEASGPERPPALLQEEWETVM
Experiment: Antagonism of PTH(1-34)- and PTHrP(1-36)-induced cAMP response (GloSensor) in SGS-72 cells
Type: cell-based
Settings: for pIC50 PTH(1-34) (Table 6): antagonist pre-treatment 15 minutes, PTH(1-34) 0.3 nM; for IC50: read-out: IC50 PTH(1-34) (Table 6, nanomolar value), antagonist pre-treatment 15 minutes, PTH(1-34) 0.3 nM
Description: cAMP signaling was assessed in the HEK293-derived or SaOS2-derived cell lines stably expressing the luciferase-based GloSensorTM cAMP reporter ([…] al., Paper presented at: Novel Signaling Mechanisms and Bone Cell Biology 2014; Binkowski et al., Methods in molecular biology. 756:263-271). HEK-293 cells were further transfected to stably express the hPTHR1, hPTHR1-H223R, or hPTHR1-T410P. The cells were seeded into 96-well white plates and were assayed 24 to 48 hours post-confluency. Assays were performed at room temperature in CO2-independent culture media (Life Technologies, Corp., Carlsbad, Calif.) containing 0.1% BSA (CIDB). The cells were pre-loaded with luciferin (0.5 mM in CIDB) for 15 minutes, then PTH peptides were added at varying concentrations. cAMP-dependent luminescence was measured at two-minute intervals using a PerkinElmer Envision plate reader. The time at which maximum luminescence (cps) observed with agonist alone, typically at 10-20 minutes after agonist addition, was used to obtain data from wells containing antagonist with or without agonist, to thus generate antagonist ligand dose-response curves. The resulting cps values were then plotted against ligand concentration using GraphPad Prism 7.0 software and a four-parameter logistics curve fitting equation, which yielded parameters of inhibitory potency (pIC50). Pharmacological properties of the ligands were assessed in cells expressing the PTHR1 and the GloSensorTM cAMP reporter. The assays used GP-2.3 cells, derived from HEK293 cells by stable transfection with the hPTHR1 and GloSensorTM, as well as SGS-72 cells, which are derived from the human osteosarcoma cell line, Saos-2, in which is endogenously expressed the hPTHR1, by stable transfection with GloSensorTM. Binding of representative polypeptides to the PTHR1 was assessed in GP-2.3 cells by radioligand competition methods (FIGS. 1A and 1B, Table 3). […] In Table 5, antagonist assays were performed in SGS-72 cells (SaOS2 cells with stable GloSensorTM cAMP reporter) at room temperature. […] The mean (±sem) concentration of antagonist that inhibited the maximum agonist-induced response observed in the absence of antagonist (at 40 minutes) is reported in units of -log M (pIC50), and the corresponding nanomolar value is shown below each pIC50 value. Data are means of the number of seven experiments. The PTH(1-34)-induced maximum luminescence was 500,000 cps and the basal was 5,000 cps. TMR indicates Lys13 modified at epsilon amino function with TMR. The data are illustrated in FIG. 7A. […] Date are means (±SEM) of the number of separate experiments indicated by n.

pIC50 PTH(1-34) (Table 6)	IC50 [nM]	Structure (SMILES)
8.52 ± 0.14	3.02	CCCC[C@H](NC(=O)[C@H](CC(C)C)NC(=O)[C@H](CCC(N)=O)NC(=O)[C@@H](N)[C@@H](C)CC)C(=O)N[C@@H](Cc1c[nH]cn1)C(=O)N[C@@H](CCC(N)=O)C(=O)N[C@@H](CC(C)C)C(=O)N[C@H](Cc1c[nH]c2ccccc12)C(=O)N[C@@H](CCCCNC(=O)c1ccc2c(c1)C(=O)OC21c2ccc(N(C)C)cc2Oc2cc(N(C)C)ccc21)C(=O)N[C@@H](Cc1c[nH]c2ccccc12)C(=O)N[C@H](C(=O)N[C@@H](CCC(N)=O)C(=O)N[C@@H](CC(=O)O)C(=O)N[C@@H](C)C(=O)N[C@@H](CCCNC(=N)N)C(=O)N[C@@H](CCCNC(=N)N)C(=O)N[C@@H](CCCNC(=N)N)C(=O)N[C@@H](C)C(=O)N[C@@H](Cc1c[nH]c2ccccc12)C(=O)N[C@@H](CC(C)C)C(=O)N[C@@H](Cc1c[nH]cn1)C(=O)N[C@@H](CCCCN)C(=O)N[C@@H](CC(C)C)C(=O)N[C@H](C(=O)N[C@@H](C)C(=O)N[C@@H](CCC(=O)O)C(=O)N[C@H](C(=O)N[C@@H](Cc1c[nH]cn1)C(=O)N[C@H](C(=O)N[C@@H](C)C(=O)N[C@@H](CCC(=O)O)C(=O)N[C@H](C(N)=O)[C@@H](C)CC)[C@@H](C)O)[C@@H](C)CC)[C@@H](C)CC)[C@@H](C)CC [compound 2000, TMR-Nle8, L11, dW12, W23-LA-PTH(5-36)-2000] (H-IQL[Nle]HQL[dW]K(5TAMRA)WIQDARRRAWLHKLIAEIHTAEI-NH2; N-terminus assumed)
8.48 ± 0.08	3.34	CCCC[C@H](NC(=O)[C@@H](N)CC(C)C)C(=O)N[C@@H](Cc1c[nH]cn1)C(=O)N[C@@H](CCC(N)=O)C(=O)N[C@@H](CCCNC(=N)N)C(=O)N[C@H](Cc1c[nH]c2ccccc12)C(=O)N[C@@H](CCCCNC(=O)c1ccc2c(c1)C(=O)OC21c2ccc(N(C)C)cc2Oc2cc(N(C)C)ccc21)C(=O)N[C@@H](Cc1c[nH]c2ccccc12)C(=O)N[C@H](C(=O)N[C@@H](CCC(N)=O)C(=O)N[C@@H](CC(=O)O)C(=O)N[C@@H](C)C(=O)N[C@@H](CCCNC(=N)N)C(=O)N[C@@H](CCCNC(=N)N)C(=O)N[C@@H](CCCNC(=N)N)C(=O)N[C@@H](C)C(=O)N[C@@H](Cc1c[nH]c2ccccc12)C(=O)N[C@@H](CC(C)C)C(=O)N[C@@H](Cc1c[nH]cn1)C(=O)N[C@@H](CCCCN)C(=O)N[C@@H](CC(C)C)C(=O)N[C@H](C(=O)N[C@@H](C)C(=O)N[C@@H](CCC(=O)O)C(=O)N[C@H](C(=O)N[C@@H](Cc1c[nH]cn1)C(=O)N[C@H](C(=O)N[C@@H](C)C(=O)N[C@@H](CCC(=O)O)C(=O)N[C@H](C(N)=O)[C@@H](C)CC)[C@@H](C)O)[C@@H](C)CC)[C@@H](C)CC)[C@@H](C)CC [compound 1993, TMR-Nle8, dW12, W23-LA-PTH(7-36)-1993] (H-L[Nle]HQR[dW]K(5TAMRA)WIQDARRRAWLHKLIAEIHTAEI-NH2; N-terminus assumed)
8.83 ± 0.09	1.49	CC[C@H](C)[C@H](NC(=O)[C@H](CCC(=O)O)NC(=O)[C@H](C)NC(=O)[C@@H](NC(=O)[C@H](Cc1c[nH]cn1)NC(=O)[C@@H](NC(=O)[C@H](CCC(=O)O)NC(=O)[C@H](C)NC(=O)[C@@H](NC(=O)[C@H](CC(C)C)NC(=O)[C@H](CCCCN)NC(=O)[C@H](Cc1c[nH]cn1)NC(=O)[C@H](CC(C)C)NC(=O)[C@H](Cc1c[nH]c2ccccc12)NC(=O)[C@H](C)NC(=O)[C@H](CCCNC(=N)N)NC(=O)[C@H](CCCNC(=N)N)NC(=O)[C@H](CCCNC(=N)N)NC(=O)[C@H](C)NC(=O)[C@H](CC(=O)O)NC(=O)[C@H](CCC(N)=O)NC(=O)[C@@H](NC(=O)[C@H](Cc1c[nH]c2ccccc12)NC(=O)[C@H](CCCCNC(=O)c1ccc2c(c1)C(=O)OC21c2ccc(N(C)C)cc2Oc2cc(N(C)C)ccc21)NC(=O)[C@@H](Cc1c[nH]c2ccccc12)NC(=O)[C@H](CC(C)C)NC(=O)[C@H](CCC(N)=O)NC(=O)[C@H](Cc1c[nH]cn1)NC(=O)[C@H](CCSC)NC(=O)[C@@H](N)CC(C)C)[C@@H](C)CC)[C@@H](C)CC)[C@@H](C)CC)[C@@H](C)O)C(N)=O [compound 2002, TMR-L11, dW12, W23-LA-PTH(7-36)-2002] (H-LMHQL[dW]K(5TAMRA)WIQDARRRAWLHKLIAEIHTAEI-NH2; N-terminus assumed)
8.67 ± 0.08	2.13	CC[C@H](C)[C@H](N)C(=O)N[C@@H](CCC(N)=O)C(=O)N[C@@H](CC(C)C)C(=O)N[C@@H](CCSC)C(=O)N[C@@H](Cc1c[nH]cn1)C(=O)N[C@@H](CCC(N)=O)C(=O)N[C@@H](CC(C)C)C(=O)N[C@H](Cc1c[nH]c2ccccc12)C(=O)N[C@@H](CCCCNC(=O)c1ccc2c(c1)C(=O)OC21c2ccc(N(C)C)cc2Oc2cc(N(C)C)ccc21)C(=O)N[C@@H](Cc1c[nH]c2ccccc12)C(=O)N[C@H](C(=O)N[C@@H](CCC(N)=O)C(=O)N[C@@H](CC(=O)O)C(=O)N[C@@H](C)C(=O)N[C@@H](CCCNC(=N)N)C(=O)N[C@@H](CCCNC(=N)N)C(=O)N[C@@H](CCCNC(=N)N)C(=O)N[C@@H](C)C(=O)N[C@@H](Cc1c[nH]c2ccccc12)C(=O)N[C@@H](CC(C)C)C(=O)N[C@@H](Cc1c[nH]cn1)C(=O)N[C@@H](CCCCN)C(=O)N[C@@H](CC(C)C)C(=O)N[C@H](C(=O)N[C@@H](C)C(=O)N[C@@H](CCC(=O)O)C(=O)N[C@H](C(=O)N[C@@H](Cc1c[nH]cn1)C(=O)N[C@H](C(=O)N[C@@H](C)C(=O)N[C@@H](CCC(=O)O)C(=O)N[C@H](C(N)=O)[C@@H](C)CC)[C@@H](C)O)[C@@H](C)CC)[C@@H](C)CC)[C@@H](C)CC [compound 2004, TMR-L11, dW12, W23-LA-PTH(5-36)-2004] (H-IQLMHQL[dW]K(5TAMRA)WIQDARRRAWLHKLIAEIHTAEI-NH2; N-terminus assumed)
8.71 ± 0.14	1.95	CC[C@H](C)[C@H](NC(=O)[C@H](CCC(=O)O)NC(=O)[C@H](C)NC(=O)[C@@H](NC(=O)[C@H](Cc1c[nH]cn1)NC(=O)[C@@H](NC(=O)[C@H](CCC(=O)O)NC(=O)[C@H](C)NC(=O)[C@@H](NC(=O)[C@H](CC(C)C)NC(=O)[C@H](CCCCN)NC(=O)[C@H](Cc1c[nH]cn1)NC(=O)[C@H](CC(C)C)NC(=O)[C@H](Cc1c[nH]c2ccccc12)NC(=O)[C@H](C)NC(=O)[C@H](CCCNC(=N)N)NC(=O)[C@H](CCCNC(=N)N)NC(=O)[C@H](CCCNC(=N)N)NC(=O)[C@H](C)NC(=O)[C@H](CC(=O)O)NC(=O)[C@H](CCC(N)=O)NC(=O)[C@@H](NC(=O)[C@H](Cc1c[nH]c2ccccc12)NC(=O)[C@H](CCCCNC(=O)c1ccc2c(c1)C(=O)OC21c2ccc(N(C)C)cc2Oc2cc(N(C)C)ccc21)NC(=O)[C@@H](Cc1c[nH]c2ccccc12)NC(=O)[C@H](CCCNC(=N)N)NC(=O)[C@H](CCC(N)=O)NC(=O)[C@H](Cc1c[nH]cn1)NC(=O)[C@H](CCSC)NC(=O)[C@@H](N)CC(C)C)[C@@H](C)CC)[C@@H](C)CC)[C@@H](C)CC)[C@@H](C)O)C(N)=O [compound 1991, TMR-dW12, W23-LA-PTH(7-36)-1991] (H-LMHQR[dW]K(5TAMRA)WIQDARRRAWLHKLIAEIHTAEI-NH2; N-terminus assumed)

Source: US20190119348A1, “PARATHYROID HORMONE RECEPTOR 1 ANTAGONIST AND INVERSE AGONIST POLYPEPTIDES AND METHODS OF THEIR USE” (The General Hospital Corporation, priority 2016, published 2019)
